# Data from the supplement of paper PMC8728848.
# The list shows a part of the results.
# Tests used:
# Test in all cases: glycan array binding signal (z-score within array); higher = stronger binding
# Conditions in all cases: glycan notation: IUPAC condensed, linker removed; mutation: F355A
# Fuc(a1-2)Gal = biological target: Fuc(a1-2)Gal
# Method in brief: (§1)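 Columns mapping to the same glycan were averaged after glycan names were converted to IUPAC-condensed notation. The data come from 3228 arrays in the Consortium for Functional Glycomics database, limited to those with an available protein sequence. Binding is reported as a within-array Z-score averaged across arrays of one protein sequence and across linkers.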
# Fuc(a1-2)Gal(b1-3)GalNAc = biological target: Fuc(a1-2)Gal(b1-3)GalNAc
# Method in brief: as §1
# [1] = biological target: Fuc(a1-2)Gal(b1-3)GalNAc(b1-3)Gal
# Method in brief: as §1
# [2] = biological target: Fuc(a1-2)Gal(b1-3)GalNAc(b1-3)Gal(a1-4)Gal(b1-4)Glc
# Method in brief: as §1
# [3] = biological target: Fuc(a1-2)Gal(b1-3)GalNAc(b1-4)[Neu5Ac(a2-3)]Gal(b1-4)Glc
# Method in brief: as §1
# Fuc(a1-2)Gal(b1-3)GlcNAc = biological target: Fuc(a1-2)Gal(b1-3)GlcNAc
# Method in brief: as §1
# [4] = biological target: Fuc(a1-2)Gal(b1-3)GlcNAc(b1-3)Gal(b1-4)Glc
# Method in brief: as §1
# [5] = biological target: Fuc(a1-2)Gal(b1-3)[Fuc(a1-4)]GlcNAc
# Method in brief: as §1
# Fuc(a1-2)Gal(b1-4)Glc = biological target: Fuc(a1-2)Gal(b1-4)Glc
# Method in brief: as §1
# Fuc(a1-2)Gal(b1-4)Glc6S = biological target: Fuc(a1-2)Gal(b1-4)Glc6S
# Method in brief: as §1
# Fuc(a1-2)Gal(b1-4)GlcNAc = biological target: Fuc(a1-2)Gal(b1-4)GlcNAc
# Method in brief: as §1
# [6] = biological target: Fuc(a1-2)Gal(b1-4)GlcNAc(b1-3)Gal(b1-4)GlcNAc
# Method in brief: as §1
# [7] = biological target: Fuc(a1-2)Gal(b1-4)GlcNAc(b1-3)Gal(b1-4)GlcNAc(b1-3)Gal(b1-4)GlcNAc
# Method in brief: as §1
# [8] = biological target: Fuc(a1-2)Gal(b1-4)GlcNAc6S
# Method in brief: as §1
# [9] = biological target: Fuc(a1-2)Gal(b1-4)[Fuc(a1-3)]GlcNAc
# Method in brief: as §1
# [10] = biological target: Fuc(a1-2)Gal(b1-4)[Fuc(a1-3)]GlcNAc(b1-3)Gal(b1-4)[Fuc(a1-3)]GlcNAc
# Method in brief: as §1
# [11] = biological target: Fuc(a1-2)Gal(b1-4)[Fuc(a1-3)]GlcNAc(b1-3)Gal(b1-4)[Fuc(a1-3)]GlcNAc(b1-3)Gal(b1-4)[Fuc(a1-3)]GlcNAc
# Method in brief: as §1
# Fuc(a1-2)Gal6S(b1-4)Glc = biological target: Fuc(a1-2)Gal6S(b1-4)Glc
# Method in brief: as §1
# [12] = biological target: Fuc(a1-2)Gal6S(b1-4)Glc6S
# Method in brief: as §1
# [13] = biological target: Fuc(a1-2)Gal6S(b1-4)GlcNAc
# Method in brief: as §1
# Fuc(a1-2)[Gal(a1-3)]Gal = biological target: Fuc(a1-2)[Gal(a1-3)]Gal
# Method in brief: as §1
# [14] = biological target: Fuc(a1-2)[Gal(a1-3)]Gal(b1-3)GlcNAc
# Method in brief: as §1
# [15] = biological target: Fuc(a1-2)[Gal(a1-3)]Gal(b1-4)Glc
# Method in brief: as §1
# [16] = biological target: Fuc(a1-2)[Gal(a1-3)]Gal(b1-4)GlcNAc
# Method in brief: as §1
# [17] = biological target: Fuc(a1-2)[Gal(a1-3)]Gal(b1-4)[Fuc(a1-3)]GlcNAc
# Method in brief: as §1
# [18] = biological target: Fuc(a1-2)[Gal(a1-4)]Gal(b1-4)GlcNAc
# Method in brief: as §1
# [19] = biological target: Fuc(a1-2)[GalNAc(a1-3)]Gal
# Method in brief: as §1
# [20] = biological target: Fuc(a1-2)[GalNAc(a1-3)]Gal(b1-3)GlcNAc
# Method in brief: as §1
# [21] = biological target: Fuc(a1-2)[GalNAc(a1-3)]Gal(b1-4)Glc
# Method in brief: as §1
# [22] = biological target: Fuc(a1-2)[GalNAc(a1-3)]Gal(b1-4)GlcNAc
# Method in brief: as §1
# [23] = biological target: Fuc(a1-2)[GalNAc(a1-3)]Gal(b1-4)[Fuc(a1-3)]GlcNAc
# Method in brief: as §1
# [24] = biological target: Fuc(a1-2)[GalNAc(a1-4)]Gal(b1-4)GlcNAc
# Method in brief: as §1
# [25] = biological target: Fuc(a1-2)[GalNAc(b1-3)]Gal
# Method in brief: as §1
# Fuc(a1-3)GlcNAc = biological target: Fuc(a1-3)GlcNAc
# Method in brief: as §1
# [26] = biological target: Fuc(a1-3)[Gal(b1-4)]Glc6S
# Method in brief: as §1
# [27] = biological target: Fuc(a1-3)[Gal(b1-4)]GlcNAc
# Method in brief: as §1
# [28] = biological target: Fuc(a1-3)[Gal(b1-4)]GlcNAc(b1-2)Man(a1-3)[Fuc(a1-3)[Gal(b1-4)]GlcNAc(b1-2)Man(a1-6)]Man(b1-4)GlcNAc(b1-4)GlcNAc
# Method in brief: as §1
# [29] = biological target: Fuc(a1-3)[Gal(b1-4)]GlcNAc(b1-2)Man(a1-6)[Gal(b1-4)GlcNAc(b1-2)Man(a1-3)]Man(b1-4)GlcNAc(b1-4)GlcNAc
# Method in brief: as §1
# [30] = biological target: Fuc(a1-3)[Gal(b1-4)]GlcNAc(b1-3)Gal(b1-3)[Fuc(a1-4)]GlcNAc
# Method in brief: as §1
# [31] = biological target: Fuc(a1-3)[Gal(b1-4)]GlcNAc(b1-4)Gal(b1-4)[Fuc(a1-3)]GlcNAc
# Method in brief: as §1
# [32] = biological target: Fuc(a1-3)[Gal(b1-4)]GlcNAc(b1-4)Gal(b1-4)[Fuc(a1-3)]GlcNAc(b1-4)Gal(b1-4)[Fuc(a1-3)]GlcNAc
# Method in brief: as §1
# [33] = biological target: Fuc(a1-3)[Gal(b1-4)]GlcNAc6S
# Method in brief: as §1
# [34] = biological target: Fuc(a1-3)[Gal3S(b1-4)]Glc6S
# Method in brief: as §1
# [35] = biological target: Fuc(a1-3)[Gal3S(b1-4)]GlcNAc
# Method in brief: as §1
# [36] = biological target: Fuc(a1-3)[Gal3S(b1-4)]GlcNAc6S
# Method in brief: as §1
binder,measurement,setting,value
Surfactant Protein D (Human); Neck + Carbohydrate Recognition Domain (NCRD) (Homo sapiens) (protein) MLLFLLSALVLLTQPLGYLEAEMKTYSHRTMPSACTLVMCSSVESGLPGRDRDGREGPRGEKGDPGLPGAAGQAGMPGQAGPVGPKGDNGSVGEPGPKGDTGPSGPPGPPGVPGPAGREGALGKQGNIGPQGKPGPKGEAGPKGEVGAPGMQGSAGARGLAGPKGERGVPGERGVPGNTGAAGSAGAMGPQGSPGARGPPGLKGDKGIPGDKGAKGESGLPDVASLRQQVEALQGQVQHLQAAFSQYKKVELFPNGQSVGEKIFKTAQFVKPFTEAQLLCTQAGGQLASPRSAAENAALQQLVVAKNEAAFLSMTDSKTEGKFTYPTGESLVYSNWAPGEPNDDGGSEDCVEIFTNGKWNDRACGEKRLVVCEA,glycan array binding signal (z-score),Fuc(a1-2)Gal,-0.15
same,glycan array binding signal (z-score),Fuc(a1-2)Gal(b1-3)GalNAc,-0.158
same,glycan array binding signal (z-score),[1],-0.129
same,glycan array binding signal (z-score),[2],-0.147
same,glycan array binding signal (z-score),[3],-0.131
same,glycan array binding signal (z-score),Fuc(a1-2)Gal(b1-3)GlcNAc,-0.126
same,glycan array binding signal (z-score),[4],-0.112
same,glycan array binding signal (z-score),[5],-0.103
same,glycan array binding signal (z-score),Fuc(a1-2)Gal(b1-4)Glc,-0.135
same,glycan array binding signal (z-score),Fuc(a1-2)Gal(b1-4)Glc6S,-0.123
same,glycan array binding signal (z-score),Fuc(a1-2)Gal(b1-4)GlcNAc,-0.156
same,glycan array binding signal (z-score),[6],-0.098
same,glycan array binding signal (z-score),[7],-0.155
same,glycan array binding signal (z-score),[8],-0.08
same,glycan array binding signal (z-score),[9],-0.133
same,glycan array binding signal (z-score),[10],-0.134
same,glycan array binding signal (z-score),[11],-0.141
same,glycan array binding signal (z-score),Fuc(a1-2)Gal6S(b1-4)Glc,-0.102
same,glycan array binding signal (z-score),[12],-0.071
same,glycan array binding signal (z-score),[13],-0.146
same,glycan array binding signal (z-score),Fuc(a1-2)[Gal(a1-3)]Gal,-0.109
same,glycan array binding signal (z-score),[14],-0.079
same,glycan array binding signal (z-score),[15],-0.152
same,glycan array binding signal (z-score),[16],0.036
same,glycan array binding signal (z-score),[17],-0.152
same,glycan array binding signal (z-score),[18],-0.125
same,glycan array binding signal (z-score),[19],-0.083
same,glycan array binding signal (z-score),[20],-0.149
same,glycan array binding signal (z-score),[21],-0.086
same,glycan array binding signal (z-score),[22],-0.152
same,glycan array binding signal (z-score),[23],-0.163
same,glycan array binding signal (z-score),[24],-0.084
same,glycan array binding signal (z-score),[25],-0.13
same,glycan array binding signal (z-score),Fuc(a1-3)GlcNAc,-0.121
same,glycan array binding signal (z-score),[26],-0.137
same,glycan array binding signal (z-score),[27],-0.106
same,glycan array binding signal (z-score),[28],-0.172
same,glycan array binding signal (z-score),[29],-0.143
same,glycan array binding signal (z-score),[30],-0.121
same,glycan array binding signal (z-score),[31],-0.04
same,glycan array binding signal (z-score),[32],-0.16
same,glycan array binding signal (z-score),[33],-0.1
same,glycan array binding signal (z-score),[34],-0.058
same,glycan array binding signal (z-score),[35],-0.132
same,glycan array binding signal (z-score),[36],-0.08
